# The supplement of paper PMC3334620
# Whole data set: some 33,000 sequences, median “E-score (-0.5 to 0.5)” near -0.032, cut for the highest 2% near 0.36. The list shows a part of the results.
# Target: T1, Sko1 (UniProt Q02100)
# T1 sequence: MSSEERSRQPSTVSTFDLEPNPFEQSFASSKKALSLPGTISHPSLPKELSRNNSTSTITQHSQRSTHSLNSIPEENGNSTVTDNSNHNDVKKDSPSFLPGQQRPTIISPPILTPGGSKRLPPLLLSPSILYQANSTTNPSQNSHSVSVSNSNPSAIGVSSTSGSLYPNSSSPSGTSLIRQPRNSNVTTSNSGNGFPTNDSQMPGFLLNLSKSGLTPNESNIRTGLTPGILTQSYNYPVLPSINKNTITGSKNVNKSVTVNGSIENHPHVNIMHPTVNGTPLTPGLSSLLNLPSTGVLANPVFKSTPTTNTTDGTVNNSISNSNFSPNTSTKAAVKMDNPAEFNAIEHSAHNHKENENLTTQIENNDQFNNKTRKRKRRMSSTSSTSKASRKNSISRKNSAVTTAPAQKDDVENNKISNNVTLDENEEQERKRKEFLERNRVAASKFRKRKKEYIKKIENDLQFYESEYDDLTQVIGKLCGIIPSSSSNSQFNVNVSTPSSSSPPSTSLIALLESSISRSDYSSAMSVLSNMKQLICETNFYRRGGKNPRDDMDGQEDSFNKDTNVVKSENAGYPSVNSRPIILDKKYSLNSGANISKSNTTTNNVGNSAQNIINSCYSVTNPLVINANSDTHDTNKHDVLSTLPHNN
# Test: PBM E-score (8-mer binding enrichment) (E-score (-0.5 to 0.5)); higher = stronger / more preferred TF binding; most listed sequences are background and not binding sites
# Conditions: protein concentration: 200 nM; construct: GST-full length
# Summary of the method: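 GST-tagged yeast TFs (full-length or DNA-binding domain) were made by PURExpress in vitro transcription/translation and applied at about 100-200 nM to universal all-10-mer Agilent arrays. The arrays were made double-stranded by primer extension, on fresh or once-stripped slides. Bound protein was detected with fluorescent anti-GST, and scans were normalised with masliner. Each ungapped eight-base word, pooled with its reverse complement, received an E-score (modified Wilcoxon-Mann-Whitney statistic) from the Universal PBM Analysis Suite.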
row,Sequence,PBM E-score
1,TCGCACGA,0.0697
2,CCTGCTCC,-0.217
3,AATCATGA,0.216
4,TCAAGACA,0.0143
5,AGTTTGGC,-0.00421
6,AATAAAAG,0.225
7,CCAAGTCA,-0.234
8,AAAAACTT,0.102
9,CAAACAGG,-0.104
10,CAGCGGGC,-0.0987
11,CAGCTCCA,-0.236
12,AATACAAG,0.00246
13,CCGCCCCC,-0.372
14,CTCGAAAC,0.0832
15,AAGCAAAA,0.114
16,CACACGGG,-0.16
17,GCTTCATA,-0.157
18,CTGTGGGA,-0.196
19,CAAATACA,0.229
20,TAGAGAAA,-0.074
21,GCGATAGC,-0.0786
22,CTAATTTC,0.0649
23,CATGCGCG,0.0759
24,ATCGATCC,-0.0591
25,CTACGAGA,-0.033

row,Sequence,PBM E-score
1,ATGCTTGG,-0.0345
2,AGAAGAGA,-0.0845
3,ATTTTTCA,0.0809
4,AAGAAGTC,-0.0438
5,CCTCCCCG,-0.102
6,TAACCGCA,0.129
7,AGGAATTA,0.25
8,CGATCAAA,-0.0914
9,GGTCCGAC,-0.115
10,AATGGAGC,0.0282
11,GGGTTAAA,-0.0218
12,CTTCTGTA,0.0515
13,CAGTTTCG,-0.0121
14,GCGACCGA,0.0506
15,AACTTCCC,-0.0155
16,CGAGAAAG,-0.0586
17,AAGTTTGC,0.0635
18,CGAGCAGA,-0.331
19,GCCGCGGC,-0.26
20,AACGCACA,0.161
21,ATCATGGA,-0.0672
22,ATTTCCTC,0.129
23,CATAGCGG,-0.0652
24,AACTCGTA,0.262
25,CGCTCTGC,-0.0705

row,Sequence,PBM E-score
1,AGATATCA,0.192
2,TGGTATAA,0.191
3,GAACTTCC,-0.131
4,CATAACGC,0.258
5,CATAGCGC,0.103
6,AAGCTCAG,0.0194
7,TAAGCTCA,-0.111
8,AAACGAAA,0.263
9,CGTTTGAG,0.0755
10,CCACACGA,-0.00899
11,TAGGAACA,-0.0725
12,AACGCGTT,0.0918
13,GTTCCCCA,-0.0746
14,GATGTGAA,0.112
15,AAACTTCC,-0.186
16,GATATACC,0.0714
17,AGGAGGGC,-0.249
18,CTGGGAGC,-0.315
19,CCATTCCA,-0.215
20,CCATACCC,-0.162
21,CGGAGACA,-0.0938
22,CTGTGGGC,-0.0921
23,GGCACCGA,-0.111
24,AAAACATC,0.117
25,CAACAGAG,-0.0575

row,Sequence,PBM E-score
1,AACGCGTC,0.216
2,GCGAAATA,0.0332
3,GAAGCAAC,0.012
4,CGCGGTGA,-0.0136
5,ACCCTTAT,0.0332
6,CCCCCGGA,-0.278
7,AATCGCGC,0.0534
8,AAAATTCG,0.18
9,AGCTCACC,-0.262
10,AGTCCGAG,-0.174
11,ACAACCAT,0.155
12,AGCACTGG,-0.211
13,TACTACTA,0.144
14,CCACTGAG,-0.259
15,GATCCAAA,0.0541
16,ACCGCATC,-0.161
17,CGCGATTC,0.0398
18,AGATCACC,-0.0409
19,TACCGGGA,-0.133
20,AGTACAGA,-0.0198
21,AACATTAA,0.216
22,ACACTCGT,0.12
23,CTCATCTA,0.0872
24,CGAATCAG,0.0878
25,ATACCTAG,-0.115

row,Sequence,PBM E-score
1,AAGAGGAG,-0.219
2,GAGTTATC,-0.0537
3,CACCTTTA,0.0252
4,AGTGTGTA,0.111
5,CATCCCAC,-0.188
6,GATTCAAA,0.0963
7,CGGCGCCA,-0.212
8,CCTGACAC,-0.142
9,ACGCCCCG,-0.115
10,CAGAGCCG,-0.144
11,ACTAATGG,0.00996
12,GATAGTGC,-0.0918
13,CAAATTCA,-0.0704
14,AATGTCCA,-0.0107
15,CCACCCGC,-0.18
16,ACACCACT,-0.00904
17,GTTTGGGA,-0.0136
18,AACAAGCT,-0.0722
19,GTAATTGA,0.294
20,ATGGCAAT,0.0404
21,CTAGCTAC,-0.105
22,GACCGGGA,-0.299
23,GATTTACC,0.0967
24,AGATTAGA,-0.0113
25,GAGCTGCA,-0.203

row,Sequence,PBM E-score
1,AAGTTCGT,0.0356
2,ATGATTCA,0.0896
3,CCGTCATC,0.36
4,ATGACCTA,0.335
5,CGCGCCCC,-0.187
6,ACTAATCT,-0.0324
7,ACACGATC,-0.0431
8,AGGCTGGA,-0.281
9,CATCCGCC,-0.221
10,CTTTATAC,0.0517
11,CAGACTCC,-0.239
12,ACAAGTAA,0.108
13,CGCCAGAC,-0.194
14,GAATACCC,-0.232
15,CTGCGCTA,-0.259
16,GCCGGAGA,0.0304
17,CCATGACG,0.475
18,AGACGAGC,-0.127
19,GCCTCCAA,-0.179
20,TGAAATAA,0.195
21,CTAAAATC,0.0417
22,GCTTTTAA,-0.0723
23,CCGCATCG,-0.293
24,TACGAGAA,0.171
25,TCGCGAAA,0.084

row,Sequence,PBM E-score
1,GTGGTACA,0.11
2,AACAGGAG,-0.0497
3,CGCGTGAC,0.267
4,CGACATCC,0.0204
5,AAGGCAAA,0.0497
6,ACGTTCTA,0.225
7,AGATTTCC,-0.0309
8,ACCGCTTG,-0.198
9,CAACGGGA,-0.0517
10,AGTAGAAT,0.173
11,CTGGTCTA,-0.127
12,GCCGACTA,0.0199
13,CACTGGCC,-0.164
14,CTCCGCAA,-0.139
15,CGTTTATA,0.278
16,AGAAGATA,0.122
17,CCATTAAA,-0.0804
18,CTTCCGGC,-0.259
19,CCTCGAGG,-0.0522
20,CGATACTA,0.103
21,CACTATCG,-0.0728
22,TGATGGCA,0.0236
23,AGCTTCGG,-0.239
24,ATGATTGC,0.145
25,AGGGGTGC,-0.241

row,Sequence,PBM E-score
1,CATCTGAG,-0.0554
2,GATAAGCA,0.149
3,ACGCAGCA,0.121
4,AGGCACAC,-0.19
5,ACGTGACC,0.292
6,GTGAGAGA,-0.0725
7,CAAAGACC,-0.0267
8,CACCCATA,-0.171
9,GATGGACA,-0.09
10,GAATCGGC,0.0193
11,CCAGGTTA,-0.197
12,GTTCAAAA,0.0536
13,ACACCTCA,-0.0252
14,ACCGGCTC,-0.231
15,ACCCTGAG,-0.0899
16,GACGCACA,0.36
17,ATAACTAG,0.124
18,CTATGATC,0.158
19,TCCGAAAA,3e-05
20,ACTCTCGG,-0.142
21,GGATATGA,0.077
22,CGGAAGAG,-0.168
23,ACCTACGG,-0.217
24,ACAAACTC,0.0691
25,AAAAATAC,0.22

row,Sequence,PBM E-score
1,CTCTCGAA,0.0273
2,GTGAACTA,0.236
3,TGCCGCCA,-0.23
4,GAAGGAAC,-0.138
5,AAGTCGGA,-0.0973
6,AATCAGAT,0.107
7,CGTATACG,0.393
8,AACTAGAC,0.163
9,AGCTCGAG,-0.117
10,GAGCGCAC,-0.0673
11,GTCATATA,0.373
12,GAATTTCC,-0.108
13,ATCAGGCC,-0.0403
14,CAGAGGCG,-0.281
15,TAGTTACA,0.0798
16,AAGTGAAT,0.167
17,CAGTCTTC,-0.187
18,CACCCGGC,-0.357
19,GTCCGGAC,-0.095
